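96-well plates; 48 h exposure; 5 concentrations. Endpoints by linear interpolation between flanking doses. Not reached: highest tested concentration assigned. GI50 = concentration required for 50% inhibition of growth.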 Activity calls are given as the source filed them. No stated cut-off is given here; in the data, active = GI50 up to about 1.1 µM and inactive = higher.
system: NCI-H322M; experiment: NCI tumour cell line growth inhibition, 48 h

| SMILES | GI50 |
| --- | --- |
| CCOc1ccccc1Nc1ccc(N)cc1S(=O)(=O)O | inactive: > 100 µM |
| Cn1c(=O)c2nc(CCCCc3nc4c(=O)n(C)c(=S)n(C)c4[nH]3)[nH]c2n(C)c1=S | inactive: > 100 µM |
| O=C1NC(=O)C(Cc2ccccc2)(c2cccnc2)N1 (stereo unspecified) | inactive: > 100 µM |
| O=C1c2ccccc2C(=O)N1CCCOCc1cnc(O)nc1O | inactive: > 100 µM |
| Nc1nc(Cl)nc2c1ncn2C1CC(O)C(CO)O1 (stereo unspecified) | inactive: 79.3 µM |
| OCCNCCN1CCN(CCCN2c3ccccc3Sc3ccc(C(F)(F)F)cc32)CC1 | inactive: 24.8 µM |
| C[N+](C)=c1nc(N2CCc3ccccc3C2)ss1.[O-][Cl+3]([O-])([O-])[O-] | inactive: > 100 µM |
| N#Cc1cccc(N2C(=O)c3c(c(-c4ccccc4)c(-c4ccc(Sc5ccc(-c6c(-c7ccccc7)c7c(c(-c8ccccc8)c6-c6ccccc6)C(=O)N(c6cccc(C#N)c6)C7=O)cc5)cc4)c(-c4ccccc4)c3-c3ccccc3)C2=O)c1 | inactive: > 100 µM |
| O=C1c2c(c(-c3ccccc3)c(-c3ccccc3)c(-c3ccccc3)c2-c2ccccc2)C(=O)N1c1cccc(Br)c1 | inactive: > 100 µM |
| CCCCCCNCCCNc1c2ccccc2nc2cccc([N+](=O)[O-])c12 | active: 0.0109 µM |
| O=C(CC(C(=O)O)N1CCOCC1)c1ccccc1 (stereo unspecified) | inactive: > 100 µM |
| c1ccc2cc(C3NCCc4nc[nH]c43)ccc2c1 (stereo unspecified) | inactive: > 100 µM |
| OCCCCCNc1ccnc2cc(Cl)ccc12 | inactive: > 100 µM |
| Cc1ccc(C2(C)NC(=S)N(NC(N)=S)C2=S)cc1 (stereo unspecified) | inactive: > 100 µM |
| CCCCCCCCCCCCCCCCNc1cccc2ccccc12 | inactive: > 100 µM |
| CC1(C)C=C(N2CCN(C3=CC(C)(C)NC(C)(C)C3)CC2)CC(C)(C)N1 | inactive: > 100 µM |
| COC(=O)CN1Cc2cc(C)cc(c2O)CN(CC(=O)OC)Cc2cc(C)cc(c2O)CN(CC(=O)OC)Cc2cc(C)cc(c2O)C1 | active: 0.466 µM |
| Cn1nc(/C=C\C(=O)N2CC(CCl)c3c2cc(N)c2ccccc32)cc1/C=C/C(=O)N1CC(CCl)c2c1cc(N)c1ccccc21 (stereo unspecified) | active: < 0.01 µM |
| COc1ccc2o/c(=N/c3ccccc3)c(C(N)=O)cc2c1 | inactive: > 37.3 µM |
| CC1(C)OC2OC(/C=C/[N+](=O)[O-])C3OC(C)(C)OC3C2O1 (stereo unspecified) | inactive: 17.7 µM |
| COC(=O)C1(O)C(c2ccccc2)=NC2(C)CCCC21 (stereo unspecified) | inactive: > 100 µM |
| CC(C)C1N(C)c2ccc(Cl)cc2[C@H]2c3ccccc3CCN12 (stereo partly specified) | inactive: 84.1 µM |

| SMILES | GI50 |
| --- | --- |
| Cn1c(-c2cccs2)cc(-c2ccccc2)c1-c1cccs1 | inactive: > 100 µM |
| COc1cc(Nc2nc3cc(C(F)(F)F)ccc3nc2-c2ccccc2)cc(OC)c1OC | inactive: > 100 µM |
| O=c1[nH]c(=O)n(C2OC(CO)C(O)C2O)c2ncc(-c3ccc(-c4ccccc4)cc3)nc12 (stereo unspecified) | inactive: > 20 µM |
| CCSc1n/c(=C\c2ccc(N(C)C)cc2)c2nnnn12 | inactive: > 100 µM |
| Cc1ccc(C(=N)c2ccccc2Cc2cccc3ccccc23)c2ccccc12 | inactive: > 100 µM |
| COc1cc(OC)c2c(O)c3c(cc2c1)CC(C)(C)CC3=O | inactive: > 100 µM |
| CC(C)C[C@H](NC(=O)CCc1cccc2ccccc12)B(O)O | inactive: 20.3 µM |
| [N-]=[N+]=NC(c1ccccc1)(c1ccccc1)c1ccccc1 | inactive: 17.1 µM |
| Nc1nc[n+](Cc2ccccc2)c2ncn(Cc3ccccc3)c12 | inactive: > 100 µM |
| O=C1C2CCCCC2C(=O)N1n1c(Cc2ccccc2)n[nH]c1=O (stereo unspecified) | inactive: > 100 µM |
| CC1CCC2C(C)C(OC(=O)CCC(=O)O)OC3OC4(C)CCC1C32OO4 (stereo unspecified) | inactive: > 100 µM |
| Cc1cc(N(CCC#N)CCC#N)ccc1/C=C1\N=C(c2cc([N+](=O)[O-])ccc2Cl)N(c2cccc(Cl)c2)C1=O | inactive: > 100 µM |
| NC1=NS(=O)(=O)Nc2nc(-c3ccccc3)c(-c3ccccc3)nc21 | inactive: > 100 µM |
| CCOC(=O)c1ccc(Nc2nc3ccc(C(F)(F)F)cc3nc2-c2ccccc2)cc1 | inactive: > 100 µM |
| CNC(=O)N(CCC#N)[C@H]1CCCC[C@@H]1N(C(=O)NC)c1ccccc1 | inactive: > 100 µM |
| CCC(C)OC(=O)/C(Br)=C1/OC(=O)c2ccccc2-c2ccccc21 (stereo unspecified) | inactive: 45.8 µM |
| CCOC(=O)C(O)(C(=O)OCC)c1cc(C(C)(C)C)c(O)c(C(C)(C)C)c1 | inactive: 74.1 µM |
| N/N=C(/C(=O)Nc1cccc(Cl)c1)C(C(=O)c1ccc(O)cc1O)C1OC(=O)c2ccccc21 (stereo unspecified) | inactive: > 100 µM |
| COC(=O)C1C(O)CC(c2ccccn2)N(Cc2ccccc2)C1c1ccccn1 (stereo unspecified) | inactive: 82.4 µM |
| Cc1cc(S(=O)(=O)NC2=NNC(C)CN2)c(S)cc1Cl (stereo unspecified) | inactive: 69.3 µM |
| Cn1ncc(NCCn2cnc3c2c(=O)n(C)c(=O)n3C)c(Cl)c1=O | inactive: > 100 µM |
| O=C1NC(=O)C(CCC(=O)c2ccc3ccccc3c2)C(=O)N1 | inactive: > 100 µM |

| SMILES | GI50 |
| --- | --- |
| c1ccc(SCCc2ccncc2)cc1 | inactive: > 100 µM |
| CCCCCCCCCC(=O)NC(CCC(=O)N(CCNC(=O)c1nc(-c2ccccc2)oc1-c1ccccc1)Cc1ccccc1)C(=O)O (stereo unspecified) | inactive: 19.5 µM |
| Cc1cn(CC2=NCC(C)(C)N2)c(=O)[nH]c1=O | inactive: > 100 µM |
| CCCCCc1cc2cc3c(c(O)c2c(=O)[nH]1)C1(CC3)C(=O)c2c(O)c3c(c(O)c2C1=O)C(=O)C(OC)=CC3=O (stereo unspecified) | inactive: 2.56 µM |
| CCC1(OC(=O)CNC)C(=O)OCc2c1cc1n(c2=O)Cc2cc3ccccc3nc2-1 (stereo unspecified) | active: 0.112 µM |
| O=c1c2ccccc2c2c1c1c3ccccc3c(=O)c1c1c3ccccc3c(=O)c21 | inactive: > 100 µM |
| C[N+](C)([O-])Cc1cccc(NC(=O)c2ccc(C(=O)Nc3cccc(C[N+](C)(C)[O-])c3)cc2)c1 | inactive: > 100 µM |
| NC(CCCNc1cccc(O)c1)C(=O)O (stereo unspecified) | inactive: > 100 µM |
| C=CCc1cccc2cc(C(=O)NCc3ccccc3)c(=N)oc12 | inactive: 25.5 µM |
| C#CCN(C(=O)C(F)(F)F)C(/C=C\C(=O)OC)(C(=O)OCC)C(=O)OCC | inactive: > 100 µM |
| NC(=O)NCCCC(NC(=O)OCCCCCn1ccc(=O)[nH]c1=O)C(=O)O (stereo unspecified) | inactive: > 100 µM |
| Cc1ccc(C(=O)/C=C(O)/C(O)=C/C(=O)c2ccc(C)cc2C)c(C)c1 | inactive: 12.8 µM |
| CC1(C)CCCCCC(O)C(O)CCC(C)(C)C1=O (stereo unspecified) | inactive: > 100 µM |
| O=C(NC(CS)C(=O)O)c1c2ccccc2nc2ccccc12 (stereo unspecified) | inactive: 60 µM |
| N#Cc1ccccc1NC(=O)c1ccccc1 | inactive: > 100 µM |
| CCC(C)CNC1=C(NC(C)=O)C(=O)c2ccccc2C1=O (stereo unspecified) | inactive: > 100 µM |
| O=C(Cc1ccccc1)NN1C(=O)C(Cl)C1c1ccc([N+](=O)[O-])cc1 (stereo unspecified) | inactive: > 100 µM |
| C/C(=N\NC(N)=S)c1sc(-n2nc(-c3ccccc3)cc2-c2ccccc2)nc1C | inactive: 62.4 µM |
| CC12CP(=O)(O)CC1C2(Cl)Cl (stereo unspecified) | inactive: > 100 µM |
| CN1N(c2ccccc2)C(=O)C2=NC=C(C#N)C(=N)C21C (stereo unspecified) | inactive: > 100 µM |
| COC(=O)CCC(=O)Nc1cccc(C(F)(F)F)c1 | inactive: > 100 µM |
| CCN(CC)CC1CCCCN1CC(=O)N1c2ccc(Br)cc2C(=O)Nc2cccnc21 (stereo unspecified) | inactive: > 100 µM |

Source: ChEMBL document CHEMBL1201862, “PubChem BioAssay data set” (2004)
